# Results from article PMC4336329 (PLoS ONE, 2015).
# The whole screen tested about 310,000 compounds, of which about 2,200 (0.71%) showed an effect of 50% or more. The effect is printed as a negative number. The list shows a part of the results.
# Target: human ether-à-go-go-related gene (hERG) potassium channel (human, UniProt Q12809)
# Assay: primary screen, population patch clamp on CHO cells stably expressing hERG
# Sequence of human ether-à-go-go-related gene (hERG) potassium channel (Q12809 whole entry, looked up): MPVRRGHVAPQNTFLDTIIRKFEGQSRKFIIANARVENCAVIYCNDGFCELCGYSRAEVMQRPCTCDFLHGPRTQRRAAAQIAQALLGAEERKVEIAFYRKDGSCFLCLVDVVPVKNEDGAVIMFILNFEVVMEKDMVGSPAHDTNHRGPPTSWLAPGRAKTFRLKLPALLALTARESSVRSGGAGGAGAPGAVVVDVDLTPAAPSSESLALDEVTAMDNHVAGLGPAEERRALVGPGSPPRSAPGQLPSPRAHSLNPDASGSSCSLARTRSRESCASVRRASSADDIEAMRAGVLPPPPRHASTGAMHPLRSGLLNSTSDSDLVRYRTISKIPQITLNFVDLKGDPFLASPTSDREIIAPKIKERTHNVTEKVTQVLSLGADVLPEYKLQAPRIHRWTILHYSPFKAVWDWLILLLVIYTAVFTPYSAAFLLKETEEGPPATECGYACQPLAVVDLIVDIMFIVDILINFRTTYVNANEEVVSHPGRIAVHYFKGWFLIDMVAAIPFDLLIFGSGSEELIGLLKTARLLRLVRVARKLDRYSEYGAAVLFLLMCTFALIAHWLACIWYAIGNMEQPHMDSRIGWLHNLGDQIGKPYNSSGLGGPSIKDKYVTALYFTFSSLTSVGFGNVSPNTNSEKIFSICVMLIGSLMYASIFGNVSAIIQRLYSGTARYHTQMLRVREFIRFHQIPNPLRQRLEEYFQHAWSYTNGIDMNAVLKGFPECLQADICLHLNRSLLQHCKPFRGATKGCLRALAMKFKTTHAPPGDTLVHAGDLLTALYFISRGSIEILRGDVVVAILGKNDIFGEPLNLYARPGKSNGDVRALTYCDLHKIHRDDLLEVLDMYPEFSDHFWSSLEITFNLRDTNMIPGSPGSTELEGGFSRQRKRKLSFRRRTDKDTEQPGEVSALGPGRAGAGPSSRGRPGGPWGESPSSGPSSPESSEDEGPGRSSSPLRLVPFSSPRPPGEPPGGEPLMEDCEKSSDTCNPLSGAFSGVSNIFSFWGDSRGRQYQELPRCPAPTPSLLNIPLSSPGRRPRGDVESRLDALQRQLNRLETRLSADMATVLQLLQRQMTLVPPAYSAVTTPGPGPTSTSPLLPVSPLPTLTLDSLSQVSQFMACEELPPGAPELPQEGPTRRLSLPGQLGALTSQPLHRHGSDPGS
row,SMILES,"hERG current change (%, negative = inhibition) at 1uM"
1,Cc1ccc(SCC(=O)NCCN2C(=O)CSC2=O)c(C)c1,3%
2,Cc1cc(NS(=O)(=O)c2ccc(NC(=O)COc3ccccc3Cl)cc2)no1,-11.6%
3,N#Cc1nc(-c2ccc(OCc3ccc(Cl)cc3)cc2)oc1N1CCC(C(N)=O)CC1,12.6%
4,COc1ccc(OC2CCN(S(=O)(=O)c3ccc(C(C)=O)cc3)CC2)cc1,12.3%
5,Cc1ccc(C)c(N(C)S(=O)(=O)c2ccc3[nH]cc(C(=O)NCCN4CCOCC4)c(=O)c3c2)c1,4.42%
6,O=C(c1cc(-c2cccs2)on1)N1CCN(c2ccccc2)CC1,10.7%
7,CCOC(=O)c1cnn(-c2ncnc3sc(CC)cc23)c1N,13.8%
8,Cc1ccc(C(=O)COC(=O)c2ccc(O)cc2)cc1,14.9%
9,Cc1ccccc1NC(=O)c1cccc(OCc2c(C)noc2C)c1,-8.17%
10,CCCS(=O)(=O)N1CCC(C(=O)NCCc2ccc(C)cc2)CC1,-2.21%
11,CN(CCOc1ccc(F)cc1)Cc1ccccc1.O=C(O)C(=O)O,18.7%
12,Cc1nn(S(=O)(=O)c2cccc([N+](=O)[O-])c2)c(C)c1S(=O)(=O)N1CCOCC1,12.9%
13,Cn1c(SCc2nc3cc(C(=O)O)ccc3c(=O)[nH]2)nnc1C(F)(F)F,6.49%
14,Cc1cc(C)cc(NC(=O)COC(=O)c2ccc3c(c2)OCCO3)c1,5.92%
15,COc1ccc(NC(=S)NNS(=O)(=O)c2ccc3ccccc3c2)c(OC)c1,13.6%
16,Cc1cc(C(=O)OCC(=O)Nc2ccc(F)cc2F)c(C)n1C1CC1,10.5%
17,Cc1ccc(-c2noc(C3CCCN(C(=O)C4CCCCC4)C3)n2)o1 (centres unmarked),6.66%
18,COc1cc(/C=C2/SC(=Nc3ccc(O)cc3)NC2=O)cc(OC)c1O,10.9%
19,CC(C)C(=O)N(Cc1ccccc1)S(=O)(=O)c1ccc2c(c1)oc(=O)n2C,-2.14%
20,Cl.c1coc(Cn2nnnc2CN2CCN(C3CCCC3)CC2)c1,7.37%
21,CC(C)[C@@H]1C=C(C(=O)O)O[C@H](OCCCCO)C1,9.78%
22,COc1cc(C(=O)NCCOc2ccc(Cl)cc2)ccc1OCc1c(C)noc1C,3.61%

row,SMILES,"hERG current change (%, negative = inhibition) at 1uM"
1,C/C(=N\O)C(C)Oc1ccc(Cl)cc1 (centres unmarked),0.586%
2,O=C(CCC1CCCCC1)Nc1ccc(S(=O)(=O)Nc2nccs2)cc1,-3.5%
3,CC1(C)CC(NC(=O)C23CCC(C)(C(=O)C2=O)C3(C)C)CC(C)(C)N1 (centres unmarked),9.67%
4,CN1CCN(c2ccc(S(=O)(=O)N3CCCCC3)cc2NC(=O)c2ccc(F)cc2F)CC1,-31.9%
5,Cc1ccc(-c2nnn(CCC(=O)N3CCCCC3C)n2)cc1 (centres unmarked),0.0185%
6,Cc1ccc2nc(SCC(=O)Nc3cc(C)on3)nc(=O)n2c1,18.6%
7,CCOC(=O)CSC1=C(C#N)C(c2ccc(C)o2)CC(=O)N1 (centres unmarked),12.5%
8,N#CC12CCCCC1CC1CCCCC1(C#N)N2N (centres unmarked),10.8%
9,COc1ccc(C(c2c(C)n(C)n(-c3ccccc3)c2=O)c2c(C)n(C)n(-c3ccccc3)c2=O)cc1O,13.6%
10,COc1cccc(C(C(=O)NC(C)(C)C)N(Cc2ccc(C)cc2)C(=O)CCC(=O)Nc2cc(C)on2)c1OC (centres unmarked),8.21%
11,O=C(/C=C/c1ccc(F)cc1)NC(=S)N1CCN(c2ccccn2)CC1,7.5%
12,Cc1ccc(C)c(N(C(=O)CCC(=O)Nc2cc(C)on2)C(C(=O)NC2CCCC2)c2ccco2)c1 (centres unmarked),13.3%
13,Cc1ccc(OCC(=O)OC(C)CN(C)Cc2ccccc2)cc1.Cl (centres unmarked),8.2%
14,COC(=O)/C(NC(C)=O)=C(\C)c1ccc(Cl)cc1,8.69%
15,O=C(NNc1ccc([N+](=O)[O-])cc1)Nc1ccccc1,-3.62%
16,CCc1nnc(NC(=O)CSc2nnc(-c3ccco3)n2CCOC)s1,9.17%
17,COc1cccc(NC(=O)C2C3C=CC4(O3)C2C(=O)N(CCCN2CCC(C)CC2)C4C(=O)NC2CCCCC2)c1 (centres unmarked),12.4%
18,COc1ccc(CCNC(=O)C(=O)NCC2OCCN2S(=O)(=O)c2ccc(F)cc2)cc1OC (centres unmarked),2.94%
19,CC1CCN(CC(=O)N2CC(=O)Nc3ccccc32)CC1,17%
20,Cc1cc2occ(CC(=O)O)c2cc1C,8.08%
21,COc1ccc(/C=C/C(=O)OCC(=O)NC2CCCC(C)C2C)cc1S(=O)(=O)N1CCOCC1 (centres unmarked),16.9%
22,Cc1ccc(OCC(O)Cn2c3ccccc3c3ccccc32)cc1 (centres unmarked),16.8%

row,SMILES,"hERG current change (%, negative = inhibition) at 1uM"
1,O=C(CN1CCCC1)OCCCC1CCCCC1,9.53%
2,N/C(=N\OC(=O)COc1cc(Cl)c(Cl)cc1Cl)c1ccccn1,19.6%
3,CCOC(=O)C1=C(CN2CCCCC2)NC(=O)NC1c1cc(C)ccc1C (centres unmarked),8%
4,Cn1ncc(C#N)c1/N=C/N1CCCCCC1,9.23%
5,COc1ccc(S(=O)(=O)N2CCOC2CNC(=O)C(=O)NCCc2c[nH]c3ccccc23)cc1 (centres unmarked),0.107%
6,Cc1c(Cl)c([N+](=O)[O-])nn1CC(=O)NCc1ccco1,15.3%
7,Cc1nc2ccccc2c(=O)n1CCCO,10.1%
8,Cc1cccc(-c2noc(CNC(=O)c3ccoc3C)n2)c1,8.65%
9,Cc1ccnc(NS(=O)(=O)c2ccc(Cl)nc2)c1,3.4%
10,COCCNC(=O)CN1C(=O)NC(c2ccccc2)(c2ccccc2)C1=O,5.18%
11,O=C1CC2(CCCC2)C(=O)N1CN1CCN(S(=O)(=O)c2ccc(Cl)c(Cl)c2)CC1,4.47%
12,COc1ccc(N(C)S(=O)(=O)c2ccc3c(c2)CC(C)N3C(=O)C2CC2)c(OC)c1 (centres unmarked),9.16%
13,O=[N+]([O-])c1ccc2nc(Cl)nc(-c3ccccc3)c2c1,-2.52%
14,Cc1nn(CCC#N)c(C)c1Oc1ccccc1O,11%
15,O=C(CCC1N=C2c3ccccc3N=C(SCc3cccc(Cl)c3)N2C1=O)NCc1ccco1 (centres unmarked),3.46%
16,CC(Sc1nncs1)C(=O)NCC(=O)Nc1ccc(F)c(F)c1F (centres unmarked),12.7%
17,Cc1ccc(C(=O)NNC(=O)c2ccc(NC(=O)C(C)(C)C)cc2)cc1,11.1%
18,Cc1ccc(OCc2nnc(SCC(=O)c3ccccc3)n2-c2ccccc2)cc1,10.1%
19,CNS(=O)(=O)c1ccc(N2CCCC2=O)c([N+](=O)[O-])c1,-3.75%
20,O=C(Cn1nnc(-c2ccccc2NC(=O)C2CC2)n1)NC1CCCCC1,7.76%
21,Cc1[nH]nc2c1C1(CCN(Cc3ccccc3)CC1)C(C#N)=C(N)O2,-24.5%
22,CCOC(=O)C1=C(c2ccccc2)N=C2SCC(=O)N2C1c1ccc(O)c(OC)c1 (centres unmarked),9.75%

row,SMILES,"hERG current change (%, negative = inhibition) at 1uM"
1,CC(=O)NC(c1cc(F)c2cccnc2c1O)C1CC1 (centres unmarked),1.05%
2,Cc1ccn2c(CNCc3cnn(C)c3)c(C(=O)N3CCCCCC3)nc2c1,5.85%
3,C[C@H](NC(=O)c1nc[nH]c1C(=O)NCC(=O)OCc1ccccc1)C(=O)OCc1ccccc1,7.04%
4,CCOc1ccc2nc(SCc3ccc(CC(=O)O)cc3)c(C#N)cc2c1,13.4%
5,O=C(NCc1cccnc1)/C(=C\c1ccc(-c2ccc(Cl)c(Cl)c2)o1)S(=O)(=O)c1ccccc1,7.52%
6,CCCS(=O)(=O)c1nc(S(=O)(=O)c2ccc(C)cc2)c(NCCCn2ccnc2)s1,0.344%
7,COc1ccccc1Nc1nc(N)nc(CSc2nnc(C)s2)n1,11.9%
8,COC(=O)c1cccc(NC(=O)Cn2cnc3c2c(=O)n(C)c(=O)n3C)c1,12.3%
9,COc1cc(NC(=O)CNC(=O)Cn2c(C)cc3ccccc3c2=O)cc(OC)c1OC,23.8%
10,CCN(CC)S(=O)(=O)c1cccc(-c2n[nH]c(=S)n2/N=C/c2ccc(OC)cc2)c1,18.5%
11,Cc1ccc(C2(c3ccccc3)NC(=O)N(CC(=O)NCc3ccccc3)C2=O)cc1C (centres unmarked),1.78%
12,Nc1ccc(Oc2ccc3nc(-c4ccccc4)c(-c4ccc([N+](=O)[O-])cc4)nc3c2)cc1,2.87%
13,CC(C)CC(=O)NC(=S)Nc1ccc(N2CCCC2)c(Cl)c1,13.8%
14,CCc1nn2c(=O)c(S(=O)(=O)Nc3ccc(Cl)cc3)c(C)nc2s1,0.74%
15,COc1ccc(NC2=NC3(CCCCC3)N=C(N)N2)cc1,5.3%
16,Cc1ccc(S(=O)(=O)N2CCOCC2)cc1C(=O)N1CCC(Cc2ccccc2)CC1,11.2%
17,CCc1noc(C)c1C(=O)Nc1ccc(S(=O)(=O)N2CCCC(C)C2)cc1 (centres unmarked),2.28%
18,Cc1ccc(C)c(NC(=O)C2CC(Cl)=CCC2C(=O)O)c1 (centres unmarked),12.1%
19,O=C1CN(C(=O)CSc2nc3cc(Cl)ccc3c(=O)n2Cc2ccccc2)c2ccccc2N1,4.34%
20,O=C(CN1C(=O)CSc2ccc(S(=O)(=O)N3CCOCC3)cc21)NCCCN1CCCCC1,15%
